The source of these data is ChEMBL document CHEMBL4888484, “Replenishing the malaria drug discovery pipeline: Screening and hit evaluation of the MMV Hit Generation Library 1 (HGL1) against asexual blood stage Plasmodium falciparum ,using a nano luciferase reporter read-out” (2022).

As a reminder, the % Inhibition is the drop in the measured response relative to a control, in per cent.

SMILES strings stand for the structures. Hit rate of the full screen: of about 150,000 compounds, about 540 (0.36%) showed an effect of 50% or more. Some of the results follow.

For this test, the system named is Plasmodium falciparum. As to the kind of experiment: Primary screen in NF54 nanoGlo assay, in single point, at 2uM, 72h; a lower Z score goes with more inhibition. Type of test: functional, Erythrocyte. To be noted: timepoint 72 hour.
For `Cc1nnc2ccc(N3CCCN(S(=O)(=O)c4ccc5c(c4)CCC(=O)N5)CC3)nn12`, the “% Inhibition” value was -13% and the Z score came out at 1.52.
Regarding `O=C(Nc1cccc(-n2cncn2)c1)N1CCC(F)(F)CC1`, the “% Inhibition” value is listed as -24% and the Z score turned out to be 2.2.
For `C[C@](O)(CNC(=O)Nc1nc2n(n1)CCCC2)c1cccc(F)c1`, the “% Inhibition” value is recorded as -4% and the Z score was found to be 0.73.
The corresponding values for `O=C(NCc1ccc(-c2ccco2)o1)NC1CCCC1` are 7% and -0.99.
The corresponding values for `N#Cc1cc2c([nH]c1=O)CCN(C(=O)c1nc3ccccc3s1)C2` are -9% and 1.42.
The corresponding values for `O=C(Nc1ccccc1)C1C2CCC(C2)N1C(=O)c1ccccc1` (stereo unspecified) are 11% and -1.23.
In the case of `CCOC(=O)N1CCN(c2nc(CN3CCCC[C@@H]3COC)nc3c(C)cccc23)CC1`, the “% Inhibition” value is -4% and the Z score is 0.56.
For `Cc1nn2cnnc2c(C)c1Cc1c(F)cccc1Cl`, in that order: -5% and 0.71.
Regarding `O=c1[nH]c(CCN2CCc3c(Cl)cc(Cl)cc3C2)nc2ccccc12`, the “% Inhibition” value worked out at 4% and the Z score is -0.76.
Turning to `Cc1ccc(CNC(=O)[C@H]2CC2(C)C)nc1C`, the “% Inhibition” value was found to be 0% and the Z score is recorded as -0.05.
The corresponding values for `Cc1ccc(CN2[C@H]3C[C@H]4CCC3(CS2(=O)=O)C4(C)C)c(C)n1` are -1% and 0.1.
In the case of `O=C(Cn1c(=O)ccc2cc(S(=O)(=O)N3CCCC3)ccc21)N1CCN(C(=O)c2ccco2)CC1`, the “% Inhibition” value is -15% and the Z score was found to be 1.82.
For the compound `CN(Cc1ccc(Cl)s1)C(=O)c1ccc(N(C)C)cc1`, the “% Inhibition” value was -10% and the Z score is reported as 1.92.
Regarding `COc1ccccc1N1CCN(C(=O)c2ccc(C#CC3(O)CCCCC3)cc2)CC1`, the “% Inhibition” value was -21% and the Z score is 3.34.
The corresponding values for `CC(C)c1nc(CN2CCC(n3ccnc3)CC2)n[nH]1` are -10% and 1.46.
On to `O=S1(=O)CCC(CCNCc2ccsc2C(F)(F)F)CC1`, for which the “% Inhibition” value is on record as -14% and the Z score is on record as 1.41.
Regarding `O=C(c1cccc(CN2CCS(=O)(=O)CC2)c1)N1CC2(CC2)c2ccccc21`, the “% Inhibition” value is given as -17% and the Z score is on record as 2.69.
For the compound `C[C@H]1C(=O)N(C)C[C@@H](CNC(=O)Nc2ccccc2C(F)(F)F)N1Cc1cccnc1`, the “% Inhibition” value is listed as -13% and the Z score is reported as 1.9.
The corresponding values for `O=C(c1ccoc1)N1CCc2n[nH]c(=O)cc2C1` are -10% and 1.14.
With `CN1CCN(C(=O)CCc2ccc(-c3ccccc3)cc2)CC1=O`, the “% Inhibition” value is -10% and the Z score came out at 1.7.
As for `COc1cn(CC(=O)Nc2cccc3ccccc23)c(CN2CCCCC2)cc1=O`, the “% Inhibition” value is on record as -6% and the Z score turned out to be 1.08.
Turning to `O=C(CC[C@H]1CCCN(Cc2ccc3c(c2)OCCO3)C1)N1CCOCC1`, the “% Inhibition” value was -11% and the Z score stood at 2.13.
For `CCCc1cc(CN(C)C(=O)CC[C@@H]2NC(=O)NC2=O)n[nH]1`, in that order: -3% and 0.39.
Take `COc1c(C(=O)Nc2ccc3ccccc3c2)c(C)nn1C`: the “% Inhibition” value was 26% and the Z score was -2.97.
For `O=C(Nc1ccc(F)c(F)c1)N1CCN(CCc2cnccn2)CC1`, in that order: -8% and 1.44.
The corresponding values for `CC(C(=O)NC[C@H]1CCCOC1)=C1CCC1` are -10% and 1.05.
Regarding `CC(C)[C@H](NS(=O)(=O)CC1CCCCC1)c1ccccc1`, the “% Inhibition” value is recorded as -12% and the Z score is given as 1.23.
Consider `O=C(c1cc(Br)ccc1Cl)N1CC(Nc2cccnn2)C1`, for which the “% Inhibition” value was -15% and the Z score came to 1.8.
For the compound `COc1ccc(F)cc1-c1nc2c([nH]1)c(C)nn2Cc1ccccc1`, the “% Inhibition” value is listed as -10% and the Z score is reported as 1.54.
With `O=C(Cc1ccccc1Cl)Nc1nnc([C@H]2CC(=O)N(c3ccc(F)cc3)C2)o1`, the “% Inhibition” value came to 7% and the Z score is -1.03.
As to `COc1cc(-c2nnc(COc3ccc4ccccc4c3)o2)cc(OC)c1OC`, the “% Inhibition” value was -7% and the Z score is listed as 0.93.
Consider `Cc1cc(C#N)nc(N2CC(C)(C)[C@@H]2C(C)C)n1`, for which the “% Inhibition” value worked out at 4% and the Z score was -0.51.
As for `Oc1ccccc1-c1nc2cnccn2c1NC1CCCC1`, the “% Inhibition” value is on record as -9% and the Z score stood at 1.34.
Regarding `Cc1noc(C)c1-c1nc2cccc(Cl)c2[nH]1`, the “% Inhibition” value is given as -12% and the Z score turned out to be 2.22.
`CCc1noc(C)c1C(=O)N1CC[C@H]2[C@H](CCC(=O)N2CCCO)C1`: the “% Inhibition” value is on record as -11% and the Z score is reported as 1.88.
The corresponding values for `CCN1CCCN(Cc2cc3ccccc3[nH]c2=O)CC1` are 35% and -3.91.
Consider `O=S(=O)(NCc1ccccc1)N1CCC[C@@H]1Cn1cccn1`, for which the “% Inhibition” value turned out to be 10% and the Z score is -0.9.
As for `Cc1onc(-c2ccccn2)c1C(=O)Nc1cc(CC2CCCCC2)n[nH]1`, the “% Inhibition” value is -2% and the Z score was 0.31.
Take `Cc1nc(C)c(C(=O)N2CCO[C@H](C(=O)Nc3ccccc3F)C2)s1`: the “% Inhibition” value was -17% and the Z score was 1.71.
For `CCCN1CC2(CCN(C(=O)c3n[nH]c4c3CCCC4)CC2)C[C@H]1C(=O)O`, in that order: -10% and 1.19.
With `O=C(c1cccnc1)N1CC[C@H](c2nnc(-c3ccncc3)o2)C1`, the “% Inhibition” value stood at 32% and the Z score is reported as -3.58.
As to `COc1ccccc1N(C(=O)COc1cccc(Br)c1)S(=O)(=O)c1ccc(NC(=O)COc2cccc(Br)c2)cc1`, the “% Inhibition” value was -2% and the Z score was determined as 0.39.
Consider `O=C(NCc1cccnc1)c1coc(CN(Cc2ccccc2)Cc2ccccc2C(F)(F)F)n1`, for which the “% Inhibition” value is recorded as 0% and the Z score came to 0.02.
For `CN(Cc1ccc2cc(Cl)ccc2n1)C[C@H]1CCCN(CCO)C1`, the “% Inhibition” value was -9% and the Z score stood at 1.24.
As for `Cc1ccc(F)cc1NC(=O)Cn1cc(S(=O)(=O)N2CCCCCC2)ccc1=O`, the “% Inhibition” value is given as -10% and the Z score was 1.98.
In the case of `Cc1cccc(N(C)C(=O)[C@H]2CCc3nnnn3CC2)c1`, the “% Inhibition” value is -5% and the Z score was determined as 1.
In the case of `C[C@@H](CCCCNC(=O)c1cc[nH]n1)NC(=O)c1cc[nH]n1`, the “% Inhibition” value is given as -9% and the Z score was found to be 1.75.
`C[C@@H]1CC[C@H](C(=O)O)CN1C(=O)OC(C)(C)C`: the “% Inhibition” value was -6% and the Z score amounted to 0.97.
Regarding `COc1ccccc1S(=O)(=O)N1CCC(Oc2cc(C)n(C)c(=O)c2)CC1`, the “% Inhibition” value was -10% and the Z score worked out at 1.73.
Regarding `Cc1cc(C)n(CCC(=O)N2CCC3(CC2)C[C@@H](C(=O)NCc2ccccn2)N(C)C3)n1`, the “% Inhibition” value is -14% and the Z score was found to be 1.77.
`CCCc1nnsc1C(=O)N1CC[C@@]2(CCCN(CC3CC3)C2=O)C1`: the “% Inhibition” value was -10% and the Z score was 1.84.
For the compound `Cc1ccc(F)c(S(=O)(=O)N2CCC3(CC2)CC(=O)N(CC(C)C)C3)c1`, the “% Inhibition” value is -8% and the Z score amounted to 1.3.
In the case of `CCOC(=O)c1n[nH]cc1-c1c(-c2ccccc2)ncn1Cc1cc(C)n[nH]1`, the “% Inhibition” value was -13% and the Z score came to 1.63.
For the compound `OC1=Nc2c(ncn2-c2cccnc2)[C@@H](c2ccc(F)c(F)c2)C1`, the “% Inhibition” value worked out at 0% and the Z score is recorded as -0.05.
For `Cc1ccc(CN(CC(=O)Nc2ccc(Br)cn2)C(C)C)o1`, in that order: -3% and 0.4.
The corresponding values for `COc1ccc(CCc2nc(NC(=O)c3nc(C)sc3C)n[nH]2)cc1OC` are 71% and -9.67.
For `CCOC1CN(S(=O)(=O)Cc2ccn(CC(F)(F)F)n2)C1`, the “% Inhibition” value is listed as -7% and the Z score is 1.43.
Consider `COc1ccc(OCCNc2nc(C)cc(=O)[nH]2)cc1`, for which the “% Inhibition” value is on record as 2% and the Z score is on record as -0.32.
On to `CO[C@@]12CC[C@@H](Oc3ccccn3)C[C@@H]1N(C(=O)CC(C)(C)C)CC2`, for which the “% Inhibition” value is listed as -15% and the Z score is 1.44.
As to `Clc1cccc([C@@H]2c3cccn3CCCN2Cc2cccc(Oc3ccccc3)c2)c1`, the “% Inhibition” value is listed as -7% and the Z score stood at 1.
The corresponding values for `O=C1N[C@@H](Cc2c[nH]c3ccccc23)C(=O)N[C@H]1CO` are -10% and 1.44.
`CC1(C)C[C@@H](NC(=O)c2cncc(F)c2)CCO1`: the “% Inhibition” value was -1% and the Z score came to 0.14.
With `O=C(NCCOc1ccc2c(c1)OCO2)c1ccn2ccnc2c1`, the “% Inhibition” value amounted to 22% and the Z score is given as -2.61.
For `CCOC(=O)c1sc(NC)nc1C(F)(F)F`, in that order: 40% and -5.15.
For the compound `Cc1nc(N)nc(NC[C@@H](C(C)C)N(C)C)c1Cl`, the “% Inhibition” value stood at 16% and the Z score was -2.15.
As to `CN1CCC2OCCN(Cc3coc(-c4ccc(F)cc4)n3)C2C1` (stereo unspecified), the “% Inhibition” value is on record as -8% and the Z score is 0.9.
`Cc1noc(C)c1CN(C)S(=O)(=O)c1cc(Cl)cc(C(=O)O)c1C`: the “% Inhibition” value is recorded as -8% and the Z score was found to be 1.02.
Take `O=C(COc1ccccc1)N1CCCN(c2nc3ccccc3nc2-c2ccccc2)CC1`: the “% Inhibition” value is reported as -3% and the Z score is on record as 0.35.
In the case of `COc1ccc(C(=O)N(CCO)CCN2CCOCC2)c(OC2CCCC2)c1`, the “% Inhibition” value worked out at 34% and the Z score was -0.44.
For `Cc1cc2ncc(Br)cc2nc1O`, in that order: -3% and 0.38.
For `COC(C(=O)N1C[C@H](C(=O)O)[C@@H](c2ccc(Br)cc2)C1)C1CC1` (stereo partly specified), in that order: -1% and 0.13.
As for `CCOc1nc2c(c(C)nn2-c2ccccc2)c(C)c1CCC(=O)N1CCN(c2ccccn2)CC1`, the “% Inhibition” value was 9% and the Z score is -1.29.
For `COCCc1nsc(NCc2cccnc2)n1`, in that order: 1% and -0.12.
As for `C[C@]1(C(=O)O)Nc2ccccc2-c2nc(=O)c(-c3ccccc3)nn21`, the “% Inhibition” value stood at 31% and the Z score was -0.82.
For the compound `O=C(NCCN1CCCC[C@@H]1CO)c1ncccc1O`, the “% Inhibition” value was -19% and the Z score amounted to 1.72.
Turning to `Cc1nnc2ccc(S(=O)(=O)N(Cc3ccc(F)cc3)c3cccc(Cl)c3)cn12`, the “% Inhibition” value is on record as 32% and the Z score is on record as -0.34.
With `CC1CCC(C)N1C(C)C(=O)Nc1ccc2c(c1)CCN2C(N)=O` (stereo unspecified), the “% Inhibition” value is reported as -10% and the Z score is 1.23.
As to `Cc1ccc2ncn(CCCn3ccnc3C(C)C)c(=O)c2c1`, the “% Inhibition” value is -5% and the Z score turned out to be 0.79.
For the compound `CC(C)n1[nH]c(=O)c2c1NC(=O)C[C@@]21C(=O)Nc2c(Cl)cc(Cl)cc21`, the “% Inhibition” value is -12% and the Z score was 1.54.
Turning to `Cc1cccc(NCC[C@H](O)C(C)C)n1`, the “% Inhibition” value was 6% and the Z score is -0.92.
`CCN(Cc1cnc2ccccn12)C(=O)NCc1ccc(OC)cc1`: the “% Inhibition” value is -2% and the Z score is reported as 0.3.
Regarding `CN(Cc1cc2ccccc2[nH]1)C(=O)[C@@H](O)c1ccccc1`, the “% Inhibition” value is on record as -13% and the Z score came out at 1.14.
On to `Cc1ccc(NC(=O)c2cc(-c3cnn(-c4ccc(C(C)C)cc4)c3C)nc3ccccc23)c(Cl)c1`, for which the “% Inhibition” value was -4% and the Z score is recorded as 0.56.
